The record followed here is the supplement of paper PMC9446081.

Among all 39,000 compounds or so, about 220 (0.56%) showed activity. This is one part of the list.
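Also: static incubation at 37 °C against the wild-type strain, values averaged over two biological replicates.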

This assay relates to Escherichia coli K-12 BW25113. Description: relative growth (OD600 normalised to plate interquartile mean) (fraction); higher = less growth inhibition, active = 0.2 or less. The conditions noted are these: 50 µM; LB; incubation time: overnight (16-24 h).
With `CNNCc1ccc(C(=O)NC(C)C)cc1`, the relative growth is inactive: 1.08.

For `C[C@H](CO)N1C[C@H](C)[C@@H](CN(C)C(=O)Nc2ccc3c(c2)OCO3)Oc2ncc(C#CC3(O)CCCC3)cc2C1=O`, the relative growth was inactive: 0.985. With `Nc1ccc(C(=O)Oc2ccccc2)c(O)c1` the figure was inactive: 1.02. As for `Cc1ccc(S(=O)(=O)N(C)C[C@@H]2OCCCC[C@@H](C)Oc3ccc(NC(=O)Nc4c(C)noc4C)cc3C(=O)N([C@H](C)CO)C[C@@H]2C)cc1`, the relative growth was inactive: 1. As to `C[C@H](CO)N1C[C@H](C)[C@@H](CN(C)C(=O)CCCN(C)C)OCCCC[C@H](C)Oc2ccc(NS(=O)(=O)c3cn(C)cn3)cc2C1=O`, the relative growth was inactive: 0.975.

Consider `C[C@H](C(=O)O)N1CCCC1=O`, for which the relative growth is inactive: 1.01. `C[C@H]1CCCCO[C@H](CN(C)C(=O)CCC(F)(F)F)[C@@H](C)CN([C@@H](C)CO)C(=O)c2cc(NS(=O)(=O)c3ccc(Cl)cc3)ccc2O1`: the relative growth is inactive: 1. In the case of `C[C@H]1C[C@@H](OC2[C@@H](O)[C@H](O)[C@H](O)[C@H](O)[C@@H]2O)[C@@H](N)C[C@@H]1NC(=N)C(=O)O` (stereo partly specified), the relative growth is inactive: 0.501. With `Cc1noc(C)c1NC(=O)N(C)C[C@H]1Oc2ccc(NS(C)(=O)=O)cc2CC(=O)N([C@@H](C)CO)C[C@@H]1C` the figure was inactive: 0.996; with `N#Cc1c(Oc2ccc(F)c(NC(=O)Cc3cccc(C(F)(F)F)c3)c2)ccc2nc(NC(=O)C3CC3)sc12`, inactive: 1.01; with `C=CC[C@H](CC(=O)N(CCO)Cc1ccccc1)C(=O)NCCOC(=O)[C@H](CC=C)CC(=O)OC(C)(C)C`, inactive: 1.01. `Cn1nc(CN2CCCC2=O)c2c1CN(C(=O)CO)C2`: the relative growth was inactive: 1.01.

On to `C[C@@H]1CN([C@H](C)CO)C(=O)c2cc(NC(=O)Nc3ccc(C(F)(F)F)cc3)ccc2O[C@@H]1CN(C)C(=O)Nc1ccc2c(c1)OCO2`, for which the relative growth is inactive: 1.01.

Take `C[C@@H]1CCCCO[C@@H](CN(C)C(=O)c2ccccc2)[C@H](C)CN([C@H](C)CO)C(=O)c2cc(NC(=O)NC3CCCCC3)ccc2O1`: the relative growth was inactive: 0.973. Turning to `Cc1ccc(S(=O)(=O)N[C@@H](Cc2ccccc2)C(=O)NCCn2cc(-c3cccc(/C=C/C(=O)NO)c3)nn2)cc1`, the relative growth was inactive: 1.01.

On to `C[C@@H]1CN([C@@H](C)CO)C(=O)Cc2cc(NC(=O)c3ccncc3)ccc2O[C@H]1CN(C)S(=O)(=O)c1ccc(Cl)cc1`, for which the relative growth is inactive: 0.997. As to `C[C@@H]1CN([C@H](C)CO)C(=O)c2cc(NS(=O)(=O)c3cn(C)cn3)ccc2O[C@@H](C)CCCCO[C@@H]1CN(C)C(=O)c1ccncc1`, the relative growth was inactive: 0.992. With `COC(=O)Cc1csc(CC(N)=O)n1`, the relative growth is inactive: 1.01. Then `C[C@@H]1CN([C@@H](C)CO)C(=O)Cc2cc(NC(=O)Nc3cccc4ccccc34)ccc2O[C@H]1CN(C)C(=O)Nc1ccc(C(F)(F)F)cc1`, with inactive: 1.01. Consider `N[C@]12CC[C@](C(=O)O)(CC1)C2`, for which the relative growth was inactive: 0.991.

On to `C[C@@H]1CN([C@H](C)CO)C(=O)c2cccc(NC(=O)Nc3cccc4ccccc34)c2O[C@@H]1CN(C)C(=O)Nc1cccc2ccccc12`, for which the relative growth was inactive: 1.02. On to `C=CCOC(=O)[C@H]1[C@@H]2C(=O)O[C@@H](c3ccccc3)[C@@H](c3ccccc3)N2[C@@H](c2ccc(OCCOC(=O)[C@@H]3C[C@@H]4C(=O)N5CCC[C@H]5C(=O)N4[C@@H]3c3ccc(O)cc3)cc2)[C@]12C(=O)Nc1ccccc12`, for which the relative growth is inactive: 1.03.

As for `Cc1noc(C)c1S(=O)(=O)N(C)C[C@@H]1Oc2ccc(NC(=O)Nc3ccccc3)cc2CC(=O)N([C@@H](C)CO)C[C@@H]1C`, the relative growth is inactive: 1.02. Then `C[C@H]1CCCCO[C@H](CN(C)C(=O)NC2CCCCC2)[C@@H](C)CN([C@@H](C)CO)C(=O)c2cc(NC(=O)C3CCCCC3)ccc2O1`, with inactive: 0.762; and `COc1ccc(NC(=O)N(C)C[C@H]2OCCCC[C@@H](C)Oc3ccc(NS(=O)(=O)c4c(C)noc4C)cc3C(=O)N([C@@H](C)CO)C[C@H]2C)cc1`, with inactive: 1.01; and `CC(C)NC(=O)Nc1ccc2c(c1)C(=O)N([C@H](C)CO)C[C@H](C)[C@@H](CN(C)S(=O)(=O)c1cn(C)cn1)OCCCC[C@H](C)O2`, with inactive: 0.881.

In the case of `COCC(=O)N(C)C[C@H]1Oc2cc(C#Cc3cccnc3)ccc2S(=O)(=O)N([C@@H](C)CO)C[C@H]1C`, the relative growth is inactive: 1.05. As to `C[C@H](CO)N1C[C@H](C)[C@@H](CN(C)C(=O)Nc2ccccc2C(F)(F)F)OCc2cnnn2CCCC1=O`, the relative growth was inactive: 0.982. Then `C=C(NC(=O)C(=C)NC(=O)c1csc(C2=N[C@@H]3c4csc(n4)[C@@H]4NC(=O)c5csc(n5)[C@H](C(C)(O)[C@@H](C)O)NC(=O)[C@H]5CSC(=N5)/C(=C/C)NC(=O)[C@H]([C@@H](C)O)NC(=O)c5csc(n5)[C@]3(CC2)NC(=O)[C@@H](C)NC(=O)C(=C)NC(=O)[C@@H](C)NC(=O)[C@@H]([C@H](C)CC)N[C@H]2C=Cc3c([C@@H](C)O)cc(nc3[C@@H]2O)C(=O)O[C@H]4C)n1)C(N)=O` (stereo partly specified), with inactive: 0.966; and `C[C@H]1CN([C@@H](C)CO)C(=O)c2cc(-c3cccc(C(=O)N(C)C)c3)cnc2O[C@@H]1CN(C)S(=O)(=O)c1ccccc1`, with inactive: 1.

As to `[N-]=[N+]=NCc1ccccc1C[C@]1(C(=O)NCc2ccccc2)N=C(c2ccc(OCCCO)cc2)O[C@H]1c1ccccc1`, the relative growth was inactive: 1.04. For `COc1cccc(OCc2ccc(Cn3nc(NC(=O)Nc4c(OC)cccc4OC)c4ccccc43)cc2)c1`, the relative growth was inactive: 1. For the compound `COc1ccccc1S(=O)(=O)N[C@@H]1C=C[C@H](CC(=O)N2CCN(C)CC2)O[C@H]1CO`, the relative growth was inactive: 0.987.

Take `O=C(Nc1nccs1)[C@H]1[C@H](CO)[C@H]2Cn3c(cccc3=O)[C@@H]1N2C(=O)C1CC1`: the relative growth was inactive: 1. `C[C@@H]1CN([C@@H](C)CO)S(=O)(=O)c2ccc(C3=CCCC3)cc2O[C@@H]1CN(C)C(=O)C1CCOCC1`: the relative growth was inactive: 0.979.

On to `C[C@H](CO)N1C[C@H](C)[C@H](CN(C)S(=O)(=O)c2ccccc2)Oc2c(NC(=O)C3CCOCC3)cccc2C1=O`, for which the relative growth was inactive: 1.
